{"source": "PubChem BioAssay AID463173", "about": "(ICCB-Longwood Screening Facility, Harvard Medical School, 2010)", "note": "Among all 52,000 compounds or so, about 1,700 (3.3%) were called active. No stated cut-off is given here; in the data, active means survival mostly below about 52% (no sharp cut-off); inactive means mostly above about 56%. This is one part of the list."}
{"system": "Wild type", "assay": "growth inhibition of S. aureus wild type versus tarO mutant, primary screen, teichoic acid synthesis inhibitors, RN4220, OD600 (AID 463173)", "settings": "S. aureus RN4220 wild type/DeltatarO growth, OD600, 18 h, stronger effect = lower value, screened at 18.75 µg/mL (by protocol)"}
{"smiles": "Cc1cccn2c(=O)c3cc(C#N)c(=O)n(-c4nnc(SCc5ccccc5F)s4)c3nc12", "survival": "inactive: 87%"}
{"smiles": "COCCCNC(=O)CCCCn1c(=O)c2ccccc2n(CC(=O)Nc2ccc(C)cc2C)c1=O", "survival": "inactive: 82%"}
{"smiles": "Cn1nc(-c2ccc(C(=O)Nc3ccc(F)cc3)cc2)c2ccccc2c1=O", "survival": "inactive: 80%"}
{"smiles": "C=Cc1ccc(Cn2nc(-c3ccc(C)c(S(=O)(=O)N(CC)CC)c3)ccc2=O)cc1", "survival": "inactive: 57%"}
{"smiles": "COc1ccc2cc(-c3nc4ccc(C(=O)O)cc4[nH]3)c(=O)oc2c1", "survival": "inactive: 65%"}
{"smiles": "Cc1cccc(-c2nnc(N(C(=O)C3CCC3)C(C)C)s2)c1", "survival": "inactive: 111%"}
{"smiles": "CCOc1ccccc1NC(=O)Cn1nnc2sc(-c3ccccc3)cc2c1=O", "survival": "inactive: 83%"}
{"smiles": "CC(C)c1ccc(S(=O)(=O)NCc2ccc3c(c2)CCN3C(=O)c2ccccc2)cc1", "survival": "inactive: 72%"}
{"smiles": "COCCNC(=O)CSc1nc2cc3c(cc2c(=O)n1CCCCCC(=O)NCc1ccc(OC)cc1)OCO3", "survival": "inactive: 63%"}
{"smiles": "COc1ccc(CNC(=O)c2ccc3c(c2)nc2n3CCC(C)C2)c(OC)c1", "note": "(stereo unspecified)", "survival": "inactive: 71%"}
{"smiles": "CCOc1ccccc1NC(=O)c1c(NC(=O)c2cccc(C)c2)sc2c1CCCC2", "survival": "inactive: 77%"}
{"smiles": "CCc1ccccc1NC(=O)Nc1cc(C(=O)NCc2ccc(C)cc2)ccc1N1CCCC1", "survival": "inactive: 132%"}
{"smiles": "COc1ccc(Br)cc1C(=O)Nc1nc2ccc(F)cc2s1", "survival": "inactive: 77%"}
{"smiles": "CC(C(=O)NCc1ccccc1F)n1ccc2cc(S(=O)(=O)N3CCCC3)ccc21", "note": "(stereo unspecified)", "survival": "inactive: 47%"}
{"smiles": "CC1CN(C(=O)Nc2ccc(C(=O)NCc3cccc(F)c3)cc2)c2ccccc2S1", "note": "(stereo unspecified)", "survival": "inactive: 72%"}
{"smiles": "Cc1sc(N)nc1-c1cccs1", "survival": "inactive: 118%"}
{"smiles": "O=C(Nc1ccc(C(F)(F)F)cc1)C1CCCN(c2cnccn2)C1", "note": "(stereo unspecified)", "survival": "inactive: 76%"}
{"smiles": "O=c1c(S(=O)(=O)c2ccccc2)cn(Cc2ccccc2)c2cc(N3CCOCC3)c(F)cc12", "survival": "inactive: 94%"}
{"smiles": "COc1cc(C(=O)Nc2ccc3oc(-c4ccc(C)c(Br)c4)nc3c2)cc(OC)c1OC", "survival": "inactive: 129%"}
{"smiles": "COc1ccc(N2CCN(c3oc(/C=C/c4cc(OC)c(OC)c(OC)c4)nc3C#N)CC2)cc1", "survival": "inactive: 79%"}
{"smiles": "Cc1cc(C)cc(Oc2nc3c(c(=O)n(C)c(=O)n3C)n2Cc2ccc(F)cc2)c1", "survival": "inactive: 76%"}
{"smiles": "CCOC(=O)c1ccccc1NC(=O)N(C)CCc1c(C)nn(CC)c1C", "survival": "inactive: 77%"}
{"smiles": "COc1ccc(F)cc1S(=O)(=O)NCCc1sc2nc(-c3ccc(F)cc3)nn2c1C", "survival": "inactive: 57%"}
{"smiles": "CCc1nnc(SCC(=O)Nc2ccc(F)cc2F)c2cc3sc(C)cc3n12", "survival": "inactive: 112%"}
{"smiles": "Cc1cc(OCC(=O)N(Cc2sccc2C)C2CCS(=O)(=O)C2)ccc1Cl", "note": "(stereo unspecified)", "survival": "inactive: 82%"}
{"smiles": "COc1ccc(Nc2cc(C(=O)NCc3ccccc3OC)c3ccccc3n2)cc1", "survival": "active: -6%"}
{"smiles": "Cc1cc(C)c2c(CC(=O)Nc3c(C(=O)Nc4ccc(Cl)cc4)oc4ccccc34)coc2c1", "survival": "inactive: 85%"}
{"smiles": "COc1ccc(CNC(=O)CN2C(=O)c3cccnc3Oc3ccc(C)cc32)cc1", "survival": "inactive: 120%"}
{"smiles": "CCc1cccc(C)c1NC(=O)CSc1nnc(CC)n2c1cc1occc12", "survival": "inactive: 75%"}
{"smiles": "CCSc1ncc(Cl)c(C(=O)Nc2ccc(S(=O)(=O)N(C)c3ccccc3)cc2)n1", "survival": "inactive: 84%"}
{"smiles": "CCCSCCCNC(=O)c1ccc2nc(Cc3ccccc3)oc2c1", "survival": "inactive: 73%"}
{"smiles": "Cc1cc(Nc2cccc(Cl)c2)nc2ccc(NC(=O)c3cccnc3)cc12", "survival": "inactive: 81%"}
{"smiles": "Cc1ccc(NC(=O)CSc2nc3n[nH]c(C)c3c(=N)n2-c2cccc(C)c2)cc1", "survival": "active: -6%"}
{"smiles": "O=C(CN1C(=O)COc2ccc(S(=O)(=O)N3CCCCCC3)cc21)NCc1ccc(F)cc1", "survival": "inactive: 76%"}
{"smiles": "CCc1ccc(CNC(=O)CN2CCSc3ccccc32)cc1", "survival": "inactive: 68%"}
{"smiles": "Cc1ccc(NC(=O)C(=O)NCC2(c3ccccc3)CCCC2)cc1Cl", "survival": "inactive: 92%"}
{"smiles": "O=C(NCCc1ccccc1)c1cnn(-c2ccc(F)cc2)c1-n1cccc1", "survival": "inactive: 49%"}
{"smiles": "CCOC(=O)N1CCc2c(sc3c2c(=O)n(CCc2ccccc2)c(=O)n3Cc2c(F)cccc2Cl)C1", "survival": "inactive: 81%"}
{"smiles": "CCC(=O)N1CCc2cc(S(=O)(=O)NC(C(=O)Nc3ccc(C(C)=O)cc3)C(C)C)ccc21", "note": "(stereo unspecified)", "survival": "inactive: 74%"}
{"smiles": "Cc1cc(C)c2c(CC(=O)N(Cc3ccccc3)C3CCS(=O)(=O)C3)coc2c1", "note": "(stereo unspecified)", "survival": "inactive: 92%"}
{"smiles": "Cc1cc(C)cc(OCC(=O)Nc2ccc(-c3nc4ccccc4o3)cc2)c1", "survival": "inactive: 70%"}
{"smiles": "CCC(=O)N1CCc2cc(Br)cc(S(=O)(=O)N3CCCC(C(=O)N(C)c4ccc(Br)cc4)C3)c21", "note": "(stereo unspecified)", "survival": "inactive: 128%"}
{"smiles": "Cn1c(=O)oc2cc(S(=O)(=O)Nc3ccc(C(=O)O)cc3)ccc21", "survival": "inactive: 84%"}
{"smiles": "O=C(O)CCCN1CCCC1=O", "survival": "inactive: 108%"}
{"smiles": "COc1ccc(NC(=O)c2cccn2-c2nnc(N3CCCCC3)s2)cc1", "survival": "inactive: 73%"}
{"smiles": "COc1ccccc1CNC(=O)c1ccc(-c2nc(CN3CCc4ccccc43)c(C)o2)cc1", "survival": "inactive: 83%"}
{"smiles": "Cc1ccc(OCC(=O)Nc2ccc3nc(SCC(=O)N4CCc5ccccc54)sc3c2)cc1", "survival": "inactive: 83%"}
{"smiles": "CCn1c(=O)c2sccc2n2c(CCC(=O)Nc3cc(C)cc(C)c3)nnc12", "survival": "inactive: 69%"}
{"smiles": "CCOC(=O)C1CCCN(c2nc3c(S(=O)(=O)c4ccc(C)c(C)c4)nnn3c3ccc(Cl)cc23)C1", "note": "(stereo unspecified)", "survival": "inactive: 91%"}
{"smiles": "NS(=O)(=O)c1ccc(N=NSCCO)cc1", "survival": "inactive: 96%"}
{"smiles": "Cc1ccc(Cl)cc1N1CCN(c2ncnc3onc(C)c23)CC1", "survival": "inactive: 64%"}
{"smiles": "COc1ccc2c(c1)CC(C(=O)NCCCN1CCN(c3ccc(F)cc3)CC1)CO2", "note": "(stereo unspecified)", "survival": "inactive: 71%"}
{"smiles": "COc1cccc(N2CCN(C(=O)C3CCN(S(=O)(=O)c4ccc5c(c4)oc(=O)n5C)CC3)CC2)c1", "survival": "inactive: 95%"}
{"smiles": "Clc1ccc(N2CCN(c3ncnc4c3nc3n4CCCC3)CC2)cc1", "survival": "inactive: 73%"}
{"smiles": "COc1ccc(-c2nc(CS(=O)CC(=O)NCc3ccccc3OC)c(C)o2)cc1", "note": "(stereo unspecified)", "survival": "inactive: 123%"}
{"smiles": "COc1cccc(C(=O)Nc2cc3c(cc2C(=O)c2ccc(C)cc2)OCCO3)c1", "survival": "inactive: 71%"}
